Among the data in PubChem BioAssay AID463173 (ICCB-Longwood Screening Facility, Harvard Medical School, 2010) are survival values, retold here.

Hit rate of the full screen: of about 52,000 compounds, about 4,300 (8.3%) were called active. Cut-off read from the data, not from the text of the source: active = survival mostly below about 52% (no sharp cut-off); inactive = mostly above about 56%. The list shows a part of the results.

The test system of the experiment is DeltatarO mutant. The experiment can be described thus: growth inhibition of S. aureus wild type versus tarO mutant, primary screen, teichoic acid synthesis inhibitors, RN4220, OD600 (AID 463173). The conditions noted are these: OD600, 18 h, active compounds read low, screened at 18.75 µg/mL (by protocol).
Consider `Cc1oc(-c2ccc(C(=O)NCc3cccc(F)c3)cc2)nc1COc1ccccc1`, for which the survival is inactive: 87%.
For `CCOC(=O)c1ccc(N2C(=O)c3n[nH]c(-c4ccco4)c3C2c2cccc(OC)c2)cc1` (stereo unspecified), the survival is inactive: 91%.
As to `COC(=O)c1ccc2c(=O)n(CCCCCC(=O)NCCc3ccc(Cl)cc3)c(=O)[nH]c2c1`, the survival is active: 52%.
Next, `Cc1ccc(Cn2ccnc2SCC(=O)NCc2ccccc2Cl)cc1`: inactive: 94%; `CCn1c(C(=O)N2CCC(C(=O)NCCc3ccc(C)cc3)CC2)cc2sccc21`: inactive: 58%; `N#Cc1c(C(F)(F)F)cc(-c2ccc(F)cc2)nc1SCC(=O)Nc1ccccc1`: inactive: 72%.
For `Cc1ccccc1NC(=O)CSc1nc2ccccc2c2nc(CCn3cncc3C)nn12`, the survival is inactive: 94%.
Turning to `COc1ccc(NC(=O)CCc2c(C)nn(-c3ccc(N4CCCCC4)nn3)c2C)cc1Cl`, the survival is inactive: 87%.
In the case of `COc1ccccc1C(=O)Nc1cccc(C(=O)OCc2cc(=O)n3ccsc3n2)c1` it was active: -4%; in that of `Cc1ccc(S(=O)(=O)N(CC(=O)Nc2ccc(Cl)cc2Cl)c2ccccc2C)cc1`, inactive: 106%; in that of `CCOC(=O)C1CCCN(C(=O)c2ccc3c(c2)sc2nc(-c4ccc(CC)cc4)cn23)C1` (stereo unspecified), inactive: 58%.
With `Cc1ccc(CNC(=O)C(C)n2nc(C)n3c(cc4sccc43)c2=O)cc1` (stereo unspecified), the survival is inactive: 111%.
`CCOc1ccc(S(=O)(=O)NC(=O)N(CC)Cc2cc3ccccc3o2)cc1`: the survival is inactive: 76%.
Turning to `Cc1ccc(C(C)C)c(OCC(O)CN2CCN(c3ccccc3F)CC2)c1` (stereo unspecified), the survival was active: -5%.
As for `COc1ccc(-n2nnnc2C2CCN(S(=O)(=O)c3ccc(NC(C)=O)cc3)CC2)cc1`, the survival was inactive: 77%.
Consider `CCn1c(=N)c(C(=O)NCc2ccccc2)cc2c(=O)n3cccc(C)c3nc21`, for which the survival is inactive: 53%.
In the case of `CC(C)c1ccc(C2NC(=O)c3n[nH]c(-c4cccs4)c32)cc1` (stereo unspecified) it was inactive: 77%; in that of `COc1ccc(Cl)cc1S(=O)(=O)NCc1ccc2c(c1)CCN2C(=O)c1cccc(C)c1`, inactive: 120%.
Regarding `CCOc1ccc(CCNC(=O)CS(=O)(=O)Cc2nc(-c3ccc(OC)cc3)oc2C)cc1`, the survival is inactive: 83%.
In the case of `Cc1cccc2sc(N(CCN(C)C)C(=O)c3ccc4c(c3)OCCO4)nc12` it was inactive: 119%; in that of `COc1ccc(Cn2c(=O)n(Cc3ccco3)c(=O)c3oc4ccccc4c32)cc1`, inactive: 60%.
In the case of `Cc1cc(OC(C)C(=O)Nc2cccc(-c3nc4ccccc4o3)c2)cc(C)c1Cl` (stereo unspecified), the survival was active: 46%.
For `CC(=O)N1CCc2cc(S(=O)(=O)CCC(=O)Nc3ccc(C)cc3Br)ccc21`, the survival was inactive: 89%.
On to `Cc1ccc(Cn2c(C)c3cnn(CC(=O)NCc4ccccc4)c(=O)c3c2C)cc1`, for which the survival was inactive: 91%.
Next, `COc1ccc(-c2nc(CSCC(=O)N3CCN(c4cc(Cl)ccc4C)CC3)c(C)o2)cc1`: active: -4%.
In the case of `O=C(CCS(=O)(=O)c1ccc(Br)cc1)Nc1ccc(F)cc1F` it was inactive: 66%.
In the case of `Cc1ccc(-c2nc3ncccn3c2Nc2ccc3c(c2)OCCO3)cc1`, the survival is inactive: 79%.
On to `CCc1ccc(CNc2ccc3c(c2)ncn3C(C)(C)C)cc1`, for which the survival was active: -16%.
Regarding `Cc1cccc(NS(=O)(=O)c2ccc3c(c2)CC(C)N3C(=O)C2CCC2)c1C` (stereo unspecified), the survival is inactive: 78%.
Next, `COc1cccc2c1cc1c(=O)n(CC(=O)N3CCN(c4ccccc4)CC3)nc(C)n12`: inactive: 95%; `O=C1CC(c2nc(-c3ccccc3)no2)CN1c1ccccc1` (stereo unspecified): active: 25%; `CCOc1ccc(N2CC(c3nc4ccccc4n3CCOc3ccccc3OC)CC2=O)cc1` (stereo unspecified): inactive: 46%.
Take `CCc1nc2ccc(C(=O)NCc3cc(OC)ccc3OC)cc2nc1CC`: the survival is inactive: 124%.
In the case of `COc1ccccc1C(O)(C(=O)NNc1cccc(Br)n1)c1ccccc1OC`, the survival is inactive: 73%.
Next, `CCOC(=O)c1c(NC(=O)COc2ccc(Cl)cc2C)sc2c1CCCCC2`: inactive: 75%; `Cc1ccc(CNC(=O)CS(=O)(=O)c2cccc3nsnc23)cc1`: inactive: 116%.
With `COc1cccc(NC(=O)Cn2c(=O)n(CCC(=O)NCCc3ccc(Cl)cc3)c(=O)c3ccccc32)c1`, the survival was inactive: 84%.
`COc1ccc(-c2nc(CS(=O)(=O)CC(=O)NCc3ccccc3Br)c(C)o2)cc1`: the survival was active: 41%.
Regarding `O=C(NCCCN1CCCCCC1)c1ccc2c(c1)sc1nc(-c3ccccc3)cn12`, the survival was active: 44%.
As to `Cc1nc2cc(-c3ccccc3)nn2c(C)c1CCC(=O)Nc1ccc(F)cc1F`, the survival is inactive: 61%.
Turning to `Cc1ccc(CNC(=O)CCCn2c(=O)c3ccccc3n(CC(=O)Nc3ccc(C)cc3)c2=O)cc1`, the survival is inactive: 89%.
`CCOc1ccc(NC(=O)CCc2c(C)nn(-c3ccc(N4CCCC4)nn3)c2C)cc1`: the survival was inactive: 94%.
For the compound `CCC(C(=O)Nc1ccc(C)c(C)c1)n1c(=O)c(C(F)(F)F)nc2ccccc21` (stereo unspecified), the survival was inactive: 103%.
With `COC(=O)c1ccc(CO)nc1`, the survival was inactive: 87%.
Take `O=C1c2cc(OCCN3CCOCC3)ccc2-c2ccc(OCCN3CCOCC3)cc21`: the survival is inactive: 60%.
Turning to `COc1ccc(CCNC(=O)Cc2c(C)c3cc4c(C(C)(C)C)coc4c(C)c3oc2=O)cc1`, the survival was inactive: 80%.
Take `COc1cc(-c2noc(-c3ccc(NCC4CCCO4)c([N+](=O)[O-])c3)n2)cc(OC)c1OC` (stereo unspecified): the survival is inactive: 53%.
Turning to `COc1ccc(NC(=O)CC2C(=O)N(c3ccc(OC)cc3)C(=O)N2CCC2=CCCCC2)cc1` (stereo unspecified), the survival is inactive: 65%.
In the case of `Cc1ccc(C)c(Nc2cc(C(=O)NC3CCCC3)c3ccccc3n2)c1` it was inactive: 87%; in that of `COc1ccc(-c2[nH]ncc2C(=O)NCc2ccccc2C)cc1`, inactive: 74%.
Consider `Cc1onc(-c2ccccc2Cl)c1C(=O)Oc1cc(F)cc(F)c1`, for which the survival was inactive: 84%.
On to `COC(=O)c1ccccc1NC(=O)Cn1c(=O)n(-c2cccc(OC)c2)c(=O)c2c(C)c(C(=O)N(C)C)sc21`, for which the survival is inactive: 117%.
`CCN(CC)c1nc(Nc2ccccc2)nc(Oc2ccc(=O)[nH]n2)n1`: the survival is inactive: 92%.
In the case of `CCC(C(=O)NCCc1ccc(SC)cc1)n1nc(C)c2sc3ccccc3c2c1=O` (stereo unspecified) it was inactive: 69%.
Regarding `CC(=O)N1CCCc2cc(S(=O)(=O)N3CCC(C(=O)NCc4ccc(C)cc4)CC3)ccc21`, the survival was inactive: 67%.
In the case of `CCN(CC)CCNC(=O)c1cn(CC)c2ccc(S(=O)(=O)N3CCOCC3)cc2c1=O`, the survival was inactive: 111%.
